Test results published in PubChem BioAssay AID662 (National Center for Advancing Translational Sciences (NCATS), 2007).
Values joined by “and” are separate entries in the source; they are usually repeats but may differ in a detail not shown here. Equal entries are not always repeated. Among all 71,000 compounds or so, about 1,800 (2.5%) were called active. Inconclusive results, whose numbers are uncertain, are shown with a selection of clear calls. The call rests on the fitted dose curve; in most records, active means well fitted activation curve with a large enough effect in the signal ratio, with a control signal flat (not every such curve was filed as active); inconclusive means small, poorly fitted or top-dose-only effect, or effect the other way, or a change in a side signal; inactive means flat fitted curve, though single readings scatter; the % refers to the signal ratio. Where the call is inconclusive, the potency comes from a doubtful curve fit.

Assay: Cell signaling CRE-BLA (Fsk stim); on activity change, negative = inhibition: % of control where 0% means no effect
Conditions: CHO CRE-bla reporter (cAMP response element driving beta-lactamase), forskolin EC10, beta-lactamase ratio; activity change, negative = inhibition: at 38.2 µM (top of the series) unless noted
Summary of the method: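 Cells were plated overnight at 37 °C, exposed to compound titrations plus EC10 NKH 477 for 3 h, then given CCF4 dye for 2 h at room temperature. Blue/green (460/530 nm) ratio was converted to %Activity and AC50 values calculated.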
Potency means the concentration at half of the fitted maximal effect; tags describe the fitted curve by direction and shape.

| SMILES | activity change, negative = inhibition | Potency |
| --- | --- | --- |
| COc1ccc(CC(C(=O)Nc2cc(C)ccc2C)/C(N)=N/O)cc1 (centres undefined) | inactive: 2.29% | – |
| Cc1nn(-c2ccc(S(=O)(=O)O)cc2)c(O)c1N=Nc1ccc(-c2ccc(N=Nc3ccc4c(S(=O)(=O)O)cc(S(=O)(=O)O)c(N)c4c3O)c(O)c2)cc1O.[Cu].[Cu] | inactive: -0.76% [at 7.6 µM] | – |
| Cc1cc(C)c2c(n1)nn1c(N3CCN(c4ccccn4)CC3)cc(C)nc21 | inconclusive: 4.18% | – |
| CCn1c(SCC(=O)Nc2nc3ccccc3s2)nnc1-c1ccc(OC)cc1 | inactive: -1.94% | – |
| CC1CCN(S(=O)(=O)c2ccc3[nH]c(=O)c(=O)[nH]c3c2)CC1 | inconclusive: -8.12% | – |
| C=C(C)COc1ccc2c(c1)CCC1C2CC[C@]2(C)C(=O)/C(=N/O)CC12 (some centres undefined) | inactive: -14.1% [at 7.6 µM] | – |
| Cc1cccc(N=C2NC(=O)CS2)c1 | inactive: -6.15% | – |
| COc1ncc2nc(CCc3ccccc3)c(=O)n(C)c2n1 | inactive: 5.63% | – |
| Cc1sc2nc(CSc3nc4ccccc4c(=O)n3CCCN3CCOCC3)[nH]c(=O)c2c1C | – | active: 2.51 µM |
| COc1ccc(Cn2nnnc2C(c2cc3cc(C)cc(C)c3[nH]c2=O)N2CCOCC2)cc1 (centres undefined) | inactive: -13.1% | – |
| COc1ccc(CCNS(=O)(=O)c2ccc3c(c2)OCCO3)cc1OC | – | inconclusive: 12.6 µM [rising, partial curve] |
| CC1CN(C2CCCCC2)c2nc3c(c(=O)[nH]c(=O)n3C)n2C1 (centres undefined) | – | inconclusive: 7.94 µM [rising, partial curve] |
| O=C(CCN1CCN(CC(=O)Nc2ccccc2Cl)CC1)Nc1ccccc1F | – | inconclusive: 3.16 µM [falling, partial curve] |
| Cc1cc(Nc2cc(F)ccc2C)n2nc(C)nc2n1 | inconclusive: 29.4% | – |
| CCOc1ccc(N(C)S(=O)(=O)c2ccc3[nH]cc(C(=O)NCC4CCCO4)c(=O)c3c2)cc1 (centres undefined) | inconclusive: -12.9% | – |
| O=S(=O)(c1ccccc1)N1CCC2(CCCN(c3cccc(-c4ccccc4)c3)C2)CC1 | inactive: 1.47% | – |
| Nc1nc2n(c1C(=O)c1ccccc1)CCC2 | inactive: -7.02% | – |
| O=C(/C=C\Nc1ccc2c(c1)OCO2)c1ccccn1 | inactive: 8.42% | – |
| C=CCn1c(SCC(=O)N(CC)CC)nc(O)cc1=O | inconclusive: 4.06% [at 7.6 µM] | – |
| COc1ccccc1C(=O)NC(CCSC)C(=O)NCC(c1ccco1)N(C)C (centres undefined) | – | inconclusive: 2 µM [falling, single point] |
| CCOC(=O)c1cnc2scnn2c1=O | – | inconclusive: 3.16 µM [falling, single point] |
| Cc1cc(C(=O)OCC(=O)NC2CCS(=O)(=O)C2)c(C)n1-c1ccccc1 (centres undefined) | – | inconclusive: 3.98 µM [rising, full curve, poor fit] |
| C=CCn1c(SCC#N)nc2ccccc2c1=O | – | inconclusive: 10 µM [rising, partial curve] |
| Cc1cc2cc(CNC(=O)c3ccc4c(c3)OCO4)ccc2n1C | inactive: 2.32% | – |
| Cc1ccc(-n2c(=O)c3sccc3n(CC(=O)NCc3ccco3)c2=O)cc1 | inconclusive: 13.4% | – |
| CSc1nnc2c(n1)OC(C)=Nc1ccccc1-2 | – | inconclusive: 10 µM [rising, partial curve, poor fit] |
| COc1ccc(Cc2nn3c(-c4ccccc4OC)nnc3s2)cc1 | – | inconclusive: 10 µM [rising, single point] |

| SMILES | activity change, negative = inhibition | Potency |
| --- | --- | --- |
| CNc1ccnc(-c2cccc(NS(C)(=O)=O)c2)n1 | inconclusive: 7.1% | – |
| CCOC(=O)Cn1cnc2c(nnn2Cc2ccc(Cl)cc2)c1=O | – | inconclusive: 5.01 µM [falling, single point] |
| CCOC(=O)CCn1c(CC(=O)OCC)nc2ccccc21 | inconclusive: 17.4% | – |
| CCCc1nc(SCc2cccnc2)c2c(=O)n(C)c(=O)n(C)c2n1 | – | active: 3.98 µM |
| Cc1ccc(Cn2ccc(NC(=O)c3cc(-c4ccc(Cl)cc4)on3)n2)cc1 | inconclusive: 28.1% | – |
| CC(=O)c1c(N2CCN(Cc3ccccc3)CC2)[nH]c(-c2ccccc2)nc1=S | – | inconclusive: 0.398 µM [rising, partial curve, poor fit] |
| COc1ccc(CCNC(=O)c2sc(=S)n(C)c2N)cc1 | – | inconclusive: 12.6 µM [rising, single point] |
| O=c1/c(=C/c2ccccn2)sc2nc3ccccc3n12 | inconclusive: -2.93% [at 7.6 µM] | – |
| CCCCn1c(N2CCC(Cc3ccccc3)CC2)nc2c1c(=O)[nH]c(=O)n2C | – | inconclusive: 15.8 µM [falling, single point] |
| CCCc1nc(SCC(=O)N2CCC(Cc3ccccc3)CC2)c2c(=O)n(C)c(=O)n(C)c2n1 | – | inconclusive: 25.1 µM [falling, single point] |
| CN(C(=O)COC(=O)COc1ccc(Cl)cc1)C1CCCCC1 | – | inconclusive: 5.01 µM [falling, single point] |
| COc1cccc(Cn2c(=O)c(CCc3ccccc3)nc3cnc(N4CCNCC4)nc32)c1 | inconclusive: 9.33% | – |
| Cc1cc(=O)n(C)c(=O)n1CCCNc1ccccc1 | – | inconclusive: 5.01 µM [falling, single point] |
| COc1ccc(CNc2ncncc2-c2ccc3c(c2)OCO3)c(OC)c1 | – | active: 3.16 µM |
| COc1ccccc1NC(=O)CN1CCN(CC(=O)Nc2ccc3c(c2)OCO3)CC1 | inconclusive: -0.531% | – |
| Cc1ccc2c(c1)-c1cc(C)nn1C(c1ccc3c(c1)OCO3)N2 (centres undefined) | – | inconclusive: 12.6 µM [rising, single point] |
| Cc1ccn2cc(C(=O)Nc3ccccc3N3CCOCC3)nc2c1 | inactive: 7.98% | – |
| COc1ccc(-c2noc(CCC(=O)Nc3cc(OC)ccc3OC)n2)cc1 | – | inconclusive: 0.631 µM [rising, full curve, poor fit] |
| NCCCCCNC(=O)/C=N\O | inactive: -0.92% | – |
| C=CCN1CCc2cc(O)c(O)cc2[C@H](c2ccccc2)C1 | inconclusive: -16.6% | – |
| CC(C)n1c2ccccc2c2nc3ccccc3nc21 | – | active: 1.58 µM |
| CC(C)NC(=O)C1CCN(C(=O)c2cc3sccc3n2Cc2ccc(F)cc2)CC1 | inconclusive: -3.97% | – |
| O=C(COC(=O)CN1C(=O)C2CC=CCC2C1=O)Nc1cc(C(F)(F)F)ccc1N1CCOCC1 (centres undefined) | inconclusive: 22.3% | – |
| COC(=O)N[C@H](c1ccccc1)[C@@]1(C)C[C@@H]1[C@@H](C)C(=O)Nc1ccc2ccccc2c1 | inconclusive: -10.1% | – |
| O=C(CSc1nc2ccccc2c(=O)n1-c1ccc(Cl)cc1)c1ccco1 | inactive: -3.09% | – |
| Cc1ccc(CN(Cc2cc3cc(C)ccc3[nH]c2=O)C(=O)N2CCOCC2)cc1 | inactive: 0.921% | – |
| COc1ccccc1NC(=O)c1cc(S(=O)(=O)N2CCOCC2)ccc1Cl | inconclusive: 4.24% | – |

| SMILES | activity change, negative = inhibition | Potency |
| --- | --- | --- |
| CCCCC(=O)Nc1ccc(NC(=O)C(C)C)cn1 | inconclusive: 5.91% | – |
| CC1CCCCN1C(=O)CSc1nnc(-c2ccc(Cl)s2)o1 (centres undefined) | inactive: -2.16% | – |
| Cc1ccccc1-c1nnc(SCC(=O)NC2CCCCC2)o1 | inactive: -5.14% | – |
| COC(=O)c1cc2ccsc2n1Cc1nc(-c2ccc(OC)cc2)oc1C | inactive: 12.4% | – |
| O=C(Cn1cnc2c(cnn2-c2ccc(F)cc2)c1=O)OCc1ccccc1 | inconclusive: 13.7% | – |
| Cc1ccccc1-n1c(SCc2ccccn2)nc2n[nH]c(C)c2c1=N | – | active: 1.26 µM |
| COc1ccc(-c2cc(OC)c3c(C)oc(C)c3c(=O)c2)cc1OC | – | active: 12.6 µM |
| COc1ccc(C2C(C(=O)N3CCOCC3)=C(C)NC3=C2C(=O)CC(C)(C)C3)c(OC)c1 (centres undefined) | inactive: 4.95% | – |
| COCCCNC(=O)C1CC(=O)N(Cc2ccc(OC)cc2)C1 (centres undefined) | inactive: -8.04% | – |
| O=C(Cc1ccc(-n2cccc2)cc1)N1CCN(c2ccccc2F)CC1 | inconclusive: 0.955% | – |
| Cc1ccccc1-c1nc(CN2CCC(C(=O)NCc3cccnc3)CC2)c(C)o1 | inconclusive: -3.77% | – |
| C[C@H]1C=C2C=C[C@H](C)[C@H](CC[C@@H]3C[C@@H](O)CC(=O)O3)[C@H]2[C@@H](OC(=O)[C@@H](C)CCO)C1 | inconclusive: 21.2% | – |
| Cn1c(CN2CCOCC2)nnc1SCC(=O)NC1CCCCC1 | inactive: -3.59% | – |
| Cc1c(OCC(F)(F)F)ccnc1CS(=O)c1nc2ccccc2[nH]1 (centres undefined) | – | inconclusive: 25.1 µM [rising, single point] and inconclusive: 12.6 µM [rising, single point] |
| CCOC(=O)C1CCCN(C(=O)c2cc3nc(-c4cccc(OC)c4)cc(C(F)(F)F)n3n2)C1 (centres undefined) | inactive: -17.1% | – |
| C=CCNc1nc(NCc2ccco2)nc(OCC)n1 | – | inconclusive: 10 µM [rising, partial curve] |
| COc1ccc(C2(C)NC(=O)N(Cc3cc(Cl)cc4c3OCOC4)C2=O)cc1OC (centres undefined) | inconclusive: 27.7% | – |
| CC(C)c1ccc(S(=O)(=O)c2n[nH]n3c2nc(=O)c2ccccc23)cc1 | inconclusive: 32% | – |
| COc1ccc(NC(=O)CCN2CCN(S(=O)(=O)c3cc(Cl)ccc3OC)CC2)cc1 | – | inconclusive: 31.6 µM [falling, single point] |
| COc1cccc(NC(=O)Cn2nnc(C(=O)Nc3ccccc3)c2N)c1 | – | inconclusive: 0.2 µM [falling, partial curve] |
| NC(=O)COc1ccc(NC(=O)OCc2ccccc2)cc1 | inconclusive: -4.43% | – |
| Cn1c(=O)c2c(nc(CN3CCc4ccccc4C3)n2CCc2ccccc2)n(C)c1=O | inactive: 2.58% | – |
| O=c1oc2ccccc2c2c1ncn2-c1ccccc1 | – | inconclusive: 3.16 µM [rising, single point] |
| O=C(COc1ccc2oc(-c3ccccc3)cc(=O)c2c1)NCc1ccco1 | inactive: -7.06% | – |
| CC1CN(C(=O)COC(=O)c2cccs2)CC(C)O1 (centres undefined) | – | inconclusive: 2.51 µM [falling, full curve] |
